Each structure is given as a SMILES string. Where “and” joins values, the source holds several entries; their conditions need not be identical. Identical values can stand only once. Counter-ions that a name gives are not always drawn. ± gives the standard deviation of the averaged measurements. Over roughly 3,200 compounds, “nuclei count (viability) relative to DMSO” has its median near 99; the lowest 2% begin near 16. This is one part of the list.

This test relates to U2OS. Put plainly: nuclei count (viability) relative to DMSO (% of DMSO); higher = more viable cells. The conditions noted are these: 10 µM; 24 h. On the procedure:
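Primary image-based screen in U2OS cells: compounds at 10 uM for 24 h, then a 1 h o-propargyl-puromycin (OPP) pulse, click labelling, and high-throughput microscopy. Mean cytoplasmic OPP intensity and nuclei count were normalised to DMSO wells within each plate (DMSO = 100) and averaged over triplicate plates.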
For the compound `CCC1(c2ccc(N)cc2)CCC(=O)NC1=O` (centres undefined) [Glutethimide, para-amino], the nuclei count is 99.8. Compound `C=C(C)[C@H]1O[C@H]2CC[C@@]3(C)[C@@](O)(CC[C@H]4[C@@H]5OC(C)(C)[C@H]6C[C@@H]7C(=C)Cc8c(Cl)cc9[nH]c(c5c9c8[C@@]76O)[C@@]43C)[C@@]23O[C@H]3[C@H]1O` [Penitrem A] returned a nuclei count of 62 ± 25. For the compound `CCN1C[C@]2(COC(=O)c3ccccc3N3C(=O)C[C@H](C)C3=O)CC[C@H](OC)[C@@]34[C@@H]5C[C@H]6[C@H](OC)[C@@H]5[C@](O)(C[C@@H]6OC)[C@](O)([C@@H](OC)[C@H]23)[C@@H]14` [Methyllycaconitine citrate], the nuclei count worked out at 109. The figure for `CNc1ccc2oc(C[C@H]3O[C@@]4(CC[C@H]3C)O[C@H]([C@H](C)C(=O)c3ccc[nH]3)[C@H](C)C[C@H]4C)nc2c1C(=O)O` is 34.1 and 33.8. `O=C(O)c1ccc2[nH]cc(CCCCN3CC=C(c4ccccc4)CC3)c2c1` [Carmoxirole hydrochloride] displayed a nuclei count of 91.5. Regarding `c1ccc2c(c1)[I+]c1ccccc1-2` [Diphenyleneiodonium chloride], the nuclei count was 45.4.

Turning to `CCN1C[C@]2(COC)[C@H](O)C[C@H](OC)[C@@]34[C@@H]5C[C@@]6(O)[C@H](OC(=O)c7ccccc7)[C@@H]5[C@@](OC(C)=O)([C@@H]([C@H](OC)[C@H]23)[C@@H]14)[C@@H](O)[C@@H]6OC` [Aconitine], the nuclei count worked out at 86.9. `Cc1ccc(C[N+](C)(C)C)o1` [5-Methylfurmethiodide] returned a nuclei count of 91.6. As to `N#CC(C#N)=Cc1ccc(O)cc1` [Tyrphostin 8], the nuclei count was determined as 102. Compound `CC(C)(Cc1c[nH]c2ccc(Cl)cc12)NCCOc1ccccc1OCC1CC1` came in with a nuclei count of 11.3. The result for `CCCN(CCC)C1CCc2cccc(O)c2C1` (centres undefined) [8-Hydroxy-DPAT hydrobromide] reads 106; that for `COC(=O)/C=C/C(=O)N[C@@H]1CC[C@@]2(O)[C@H]3Cc4ccc(O)c5c4[C@@]2(CCN3CC2CC2)[C@H]1O5` [_-Funaltrexamine hydrochloride], 85.7. `O[C@@H]1CCCC[C@H]1N1CCC(c2ccccc2)CC1` [L(-)-vesamicol hydrochloride] gave a nuclei count of 105. In turn, `O=C1CCCN1CC#CCN1CCCC1` [Oxotremorine sesquifumarate] showed a nuclei count of 104. With `CCC(=O)CCCCC[C@@H]1NC(=O)[C@H]2CCCCN2C(=O)[C@H]([C@@H](C)CC)NC(=O)[C@H](Cc2cn(OC)c3ccccc23)NC1=O` [Apicidin], the nuclei count was determined as 54.1 ± 37. Take `CCN(CC)C(C)C(=O)c1ccccc1` (centres undefined) [Amfepramone hydrochloride]: the nuclei count came out at 107. On to `C[C@]12N[C@H](Cc3ccccc31)c1ccccc12` [Dizocilpine maleate], for which the nuclei count worked out at 99.3. On to `C[N+]1([O-])[C@@H]2C[C@@H](OC(=O)[C@H](CO)c3ccccc3)C[C@H]1[C@@H]1O[C@@H]12` (some centres undefined) [Scopolamin-N-oxide hydrobromide], for which the nuclei count came out at 101. The result for `Oc1cc(Cl)ccc1Oc1ccc(Cl)cc1Cl` [Triclosan] reads 107; that for `CC1(C)C(C=C(Cl)Cl)C1C(=O)OC(C#N)c1cccc(Oc2ccccc2)c1` (centres undefined) [Cypermethrin], 105. `CC(C)n1cnc2c(C(=O)N[C@H]3CN4CCC3CC4)cc(Cl)cc21` showed a nuclei count of 96.2. In turn, `C[C@](O)(COc1ccc(C#N)cc1)C(=O)Nc1ccc(C#N)c(C(F)(F)F)c1` [Ostarine (MK-2866)] had a nuclei count of 108. `CCCN(CCC)C1CCc2ccc(O)cc2C1` (centres undefined) [7-Hydroxy-DPAT hydrobromide] yielded a nuclei count of 112. Consider `CC(=O)Nc1ccc(OC[C@](C)(O)C(=O)Nc2ccc([N+](=O)[O-])c(C(F)(F)F)c2)cc1` [Andarine (GTX-007)], for which the nuclei count worked out at 97.6. Turning to `Oc1cc2c(cc1O)[C@H]1c3ccccc3CN[C@@H]1CC2` (racemic) [Dihydrexidine hydrochloride], the nuclei count was found to be 89.3. For `CC(=O)O[C@H]1C[C@H](O[C@H]2[C@@H](O)C[C@H](O[C@H]3[C@@H](O)C[C@H](O[C@H]4CC[C@@]5(C)[C@H](CC[C@@H]6[C@@H]5C[C@@H](O)[C@]5(C)[C@@H](C7=CC(=O)OC7)CC[C@]65O)C4)O[C@@H]3C)O[C@@H]2C)O[C@H](C)[C@H]1O[C@@H]1O[C@H](CO)[C@@H](O)[C@H](O)[C@H]1O` [Lanatoside C], the nuclei count was found to be 18.1.

As for `COc1ccc(CCN2CCC(Nc3nc4ccccc4n3Cc3ccc(F)cc3)CC2)cc1` [Astemizole], the nuclei count was found to be 79.5 ± 1.6.

In turn, `CC(N)Cc1c[nH]c2ccc(O)cc12` (centres undefined) [_-Methyl-5-hydroxytryptamine maleate] yielded a nuclei count of 107.

`Oc1ccc2c3c1O[C@H]1c4c(c5ccccc5n4Cc4ccccc4)C[C@@]4(O)C(C2)N(CC2CC2)CC[C@]314` [N-Benzylnaltrindole hydrochloride]: the nuclei count was found to be 83.2. The compound `BrC1C(Br)C(Br)C(Br)C(Br)C1Br` (centres undefined) [1,2,3,4,5,6-Hexabromocyclohexane] returned a nuclei count of 90.6. The figure for `Fc1ccc(C(OCCN2CCN(CCCc3ccccc3)CC2)c2ccc(F)cc2)cc1` is 92.6 ± 3.9; for `CC(C)(C)NCC(O)c1cc(Cl)c(N)c(Cl)c1` (centres undefined) [Clenbuterol hydrochloride] it is 106; for `C=C(C)[C@H]1Cc2c(ccc3c2O[C@@H]2COc4cc(OC)c(OC)cc4[C@@H]2C3=O)O1` [Rotenone] it is 26.3. In turn, `COC(=O)C1=CCCN(C)C1` [Arecoline] yielded a nuclei count of 107. On to `CC(CN)CC(=O)O` (centres undefined) [3-Methyl-GABA], for which the nuclei count came to 104. Compound `CNCC(=O)c1ccc(O)c(O)c1` [Adrenalone HCl] had a nuclei count of 101. `CC(C)N(CCNC(=O)CN1CCCC1=O)C(C)C` [Pramiracetam] came in with a nuclei count of 101.

The compound `CC(C)(c1ccc(OCC2CO2)cc1)c1ccc(OCC2CO2)cc1` (centres undefined) yielded a nuclei count of 86.6 ± 6.1.

With `CCC1(CC)C(=O)C=CNC1=O` [Pyrithyldione], the nuclei count came to 92. In the case of `CCCOc1ccc2[nH]cc(C3=CCNCC3)c2n1`, the nuclei count is 93. `COc1ccc(Cc2nccc3cc(OC)c(OC)cc23)cc1OC` [Papaverine hydrochloride]: the nuclei count turned out to be 94.

For `O=C1CSC(c2ccccc2Cl)c2cc(Cl)ccc2N1` (centres undefined), the nuclei count is 97.8. The result for `C[C@]12CC[C@H]3[C@@H](CC[C@@]45O[C@@H]4C(O)=C(C#N)C[C@]35C)[C@@H]1CC[C@@H]2O` [Trilostane] reads 100; that for `O=C(O)CNC(=O)c1c(O)c2ccccc2n(Cc2ccccc2)c1=O`, 97.7 ± 5.6.
